Laboratory results as given in PMC12040169 (PLOS Biology, 2025).
Some of the results follow.

These compounds were tested on T1, C. trachomatis L2/434/Bu expressing GFP (CTL2-GFP). Details: total inclusion area; 28.5 h, 10 µM; inhibitor.
T1 construct: L2/434/Bu GFP intracellular growth in HeLa cells
Design: species or system HeLa; C. trachomatis total inclusion area by high-content imaging, normalised to DMSO
How it was run: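 Imaging read-out: GFP inclusions and Hoechst nuclei captured by high-content imaging after fixation. Inclusion area/number = chlamydial growth; nuclei count = host cell viability. MIC calculated per earlier method.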

| Compound | % of control remaining |
| --- | --- |
| CC1CCCC(N2CCN(Cc3ccccn3)CC2)C1 (stereo not shown) [CBK263450] | 105.304 |
| O=C(CCC1CCCCC1)N1CCC(c2n[nH]cc2C(=O)N2CCc3ccccc3C2)CC1 [CBK286271] | 105.612 |
| CCCn1cc(NC(=O)NC(CC)(CO)c2ccccc2)ccc1=O (stereo not shown) [CBK305060] | 80.0637 |
| CCS(=O)(=O)Nc1ccc(C(=O)N2CCN(c3ccccc3)CC2)cc1 [CBK304345] | 69.3497 |
| Cc1ccc(OCC(O)Cn2c(=N)n(CCN3CCCCC3)c3ccccc32)cc1 (stereo not shown) [CBK266375C] | 115.833 |
| N#CC1=C(SCC(=O)Nc2cccc3ccccc23)NC(=O)CC1c1ccco1 (stereo not shown) [CBK265793] | 85.4985 |
| Cc1cnn(C2CCN(C(=O)CC3OCCc4ccccc43)CC2)c1 (stereo not shown) [CBK304186] | 36.6268 |
| CCOC(=O)Cn1ncc2c3sc(C)cc3n(CC)c2c1=O [CBK284185] | 70.3008 |
| Cc1cc(OCC(=O)NN2CCN(C)CC2)ccc1[N+](=O)[O-] [CBK268136] | 83.6628 |
| Nc1cc(S(=O)(=O)C(F)(F)F)ccc1C(=O)O [CBK286646] | 87.9798 |
| COc1ccc2c(c1)C1(CC(=O)N(Cc3ccc(OC)c(OC)c3)C1=O)C(=O)N2C (stereo not shown) [CBK075157] | 82.6262 |
| COc1ccc(CNC(=O)CN2C(=O)[C@@H]3CCCN3C(=O)c3ccccc32)cc1 [CBK286322] | 126.706 |
| O=C(NC1CCN(CC(F)(F)F)C1=O)c1cc(Cl)ccn1 (stereo not shown) [CBK305223] | 38.7697 |
| Cc1cc(CNS(=O)(=O)c2c(C)noc2C)no1 [CBK062261] | 90.549 |
| C[C@@H]1CN2CCCC2CN1Cc1ccc2ncccc2c1 (stereo partly shown) [CBK284555] | 59.0472 |
| CCc1nnc(NS(=O)(=O)c2ccc(N/C=C3\C(=O)N(c4ccc(C)cc4)N=C3C)cc2)s1 [CBK262395] | 31.4839 |
| O=C(Nc1ccc(Cl)cc1C(=O)O)c1ccccc1 [CBK269993] | 102.489 |
| CC(C)Oc1ncc(C(=O)Nc2ccc(OCCC(N)=O)cc2)cc1Cl [CBK305750] | 16.6639 |
| Cc1ccc(S(=O)(=O)NCCSc2nnc(Nc3ccccc3)s2)cc1 [CBK266345] | 87.5516 |
| CC(C)N(C(=O)CN1C(=O)N2CCN=C2c2ccccc21)C(C)C [CBK284005] | 91.3811 |
| Cc1c(C(=O)NCc2ccncc2)nnn1-c1cccc(C(F)(F)F)c1 [CBK107396] | 97.3128 |
| CCN1CC2(CCC1=O)CCN(Cc1nncn1C(C)C)CC2 [CBK307460] | 39.7939 |
| CCOc1ccc2[nH]c(C(=O)NC3CCCOC3)cc2c1 (stereo not shown) [CBK283114] | 106.008 |
| O=C(CSc1nnc(-c2cccc(F)c2)o1)c1ccccc1 [CBK068764] | 105.417 |
| CCCc1c(C(=O)N2CCN(c3cnccn3)CC2)cnn1C [CBK305962] | 64.2656 |
| O=C(NCCCc1ccccn1)c1cc2ccc(F)cc2[nH]1 [CBK283211] | 87.9273 |
| COc1ccc(F)cc1-c1cccc(CC2(C(=O)NC3CCCCC3)CCOCC2)c1 [CBK285541] | 96.77 |

| Compound | % of control remaining |
| --- | --- |
| COc1cc(C)c2c(N)c(C(C)=O)sc2n1 [CBK115336] | 87.421 |
| Cc1nc(Oc2ccccc2)c2c3c(sc2n1)CCCC3 [CBK131919] | 100.329 |
| Cc1ccccc1-c1nnc(NC(=O)c2ccc(N3C(=O)CCC3=O)cc2)s1 [CBK287332] | 101.805 |
| Cc1cnc2c(Cl)c(C(=O)NCC3(CN4CCOCC4)CC3)nn2c1 [CBK306918] | 61.3974 |
| CN1CCCN(c2ccc(NS(=O)(=O)c3ccc(F)cc3F)c3ccccc23)CC1 [CBK001499C] | 8.558 |
| N#Cc1nc(COc2cccc(Cl)c2)oc1NCc1ccncc1 [CBK266447] | 124.922 |
| COc1ccc(/C=N/NC(=O)c2ccc(O)cc2O)cc1COc1cc(C)c(Cl)c(C)c1 [CBK263000] | 100.922 |
| O=C(NC1CCN(c2nc3cccnc3s2)CC1)c1ccsc1 [CBK304342] | 58.9276 |
| CC(C)NC(=O)N1CCCC1c1nc(-c2ccc(Cl)cc2)c2ccccn12 (stereo not shown) [CBK046947] | 87.6406 |
| CC(C)(C)C(=O)NCCN1CCC(O)(c2ccc(F)cc2)CC1 [CBK283262] | 69.5464 |
| CCOC(=O)CN1CCC(Oc2cncc(OCCN3CCOCC3)n2)C1 (stereo not shown) [CBK084491] | 86.9771 |
| COc1ccc(C(=O)N2CCC(N(C)Cc3ccc(-c4ccc(S(C)(=O)=O)cc4)nc3)CC2)cc1Cl [CBK165991T] | 78.3251 |
| Cc1ccc(S(=O)(=O)N(CC(=O)NC2CC3CCC2C3)c2cc(Cl)cc(Cl)c2)cc1 (stereo not shown) [CBK263995] | 101.618 |
| Cc1cc(C)cc(NC(=O)C(Cc2ccccc2)C(=O)Nc2cc(C)cc(C)c2)c1 [CBK266165] | 105.517 |
| COc1ccccc1-c1ccc(NC(=O)CCc2nc3ccccc3[nH]2)cc1 [CBK285651] | 104.138 |
| O=C(O)c1ccccc1NC1SC(=O)N(c2ccccc2)C1=O (stereo not shown) [CBK261078] | 102.065 |
| CCOC(=O)c1cnc(SC)nc1NCCc1c[nH]c2cc(OC)ccc12 [CBK092317] | 85.7513 |
| Cc1ccc2n1CCN(C(=O)c1cccc(-n3cnnc3)c1)C2C(C)C (stereo not shown) [CBK282444] | 127.241 |
| Cc1cc(S(=O)(=O)N2CCCC2)ccc1OCC(=O)NCc1ccccn1 [CBK270027] | 93.6867 |
| CN1CCN(c2nc(NS(=O)(=O)c3cccc(C(F)(F)F)c3)cc3ccccc23)CC1 [CBK200013C] | 97.4413 |
| COc1ccnc(N2CCN(Cc3cncn3C3CCCCC3)CC2)n1 [CBK306925] | 97.4479 |
| O=C(Cc1ccsc1)N1CCN(c2ncccn2)CC1 [CBK144525] | 99.7622 |
| CC1(NC(=O)CC[N+]23CCN(CC2)CC3)CS(=O)(=O)CC1S(=O)(=O)[O-] (stereo not shown) [CBK262518] | 53.7375 |
| O=C(Nc1ccc2nc(-c3ccc(-c4nc5ccc(NC(=O)c6cccc7ccccc67)cc5[nH]4)cc3)[nH]c2c1)c1cccc2ccccc12 [CBK261160] | 88.5605 |
| CC(=O)NC(c1nccs1)C1CCN(C(=O)C2CC2C)CC1 (stereo not shown) [CBK282232] | 84.3429 |
| CCOCCCn1c(SC(C)C#N)nc2ccc(Br)cc2c1=O (stereo not shown) [CBK306084] | 22.6472 |
| Cn1c(=O)oc2ccc(C(=O)N3CCn4nc(CO)cc4C3)cc21 [CBK306821] | 87.5099 |

| Compound | % of control remaining |
| --- | --- |
| COc1ccc(NC(=O)CC(CN2CCN(c3ccc(Cl)cc3)CC2)C(=O)O)cc1 (stereo not shown) [CBK286831] | 113.97 |
| COc1ccc(-c2nn(CCC(=O)O)cc2/C=C2\SC(=S)NC2=O)cc1OC [CBK265318] | 95.1396 |
| S=c1[nH]cnc2c1[nH]c1ccc(Br)cc12 [CBK288487] | 58.9428 |
| COc1cc(NC(=O)c2ccc(-c3cc4ccccc4oc3=O)cc2)ccc1NC(=O)C(C)C [CBK268601] | 79.1314 |
| CC1CCCN(C(=O)CCn2c(-c3ccccn3)cc3cccnc32)C1 (stereo not shown) [CBK282154] | 88.9637 |
| O=C(Nc1ncc(Cc2ccc(F)cc2)s1)c1csc2c1CCCC2 [CBK300489] | 30.176 |
| CCC(CN1CCCC1)NC(=O)Cc1c(C)[nH]c2ccc(F)cc12 (stereo not shown) [CBK282751] | 113.52 |
| COc1cccc(COc2cnc(-c3ccccc3)c(N)n2)c1OC [CBK145066] | 95.3317 |
| Cc1c(Cl)cccc1CNC(=O)CC1SC(NCC2CCCCC2)=NC1=O (stereo not shown) [CBK067017] | 34.662 |
| Nc1c(C(=O)O)nnn1Cc1ccccc1 [CBK263796] | 121.342 |
| COc1ccc(/C=N/NC(=O)CCn2c3ccccc3c3ccccc32)cc1O [CBK262343] | 6.621 |
| COc1ccc(-c2csc(NS(=O)(=O)c3c(C)cc(Cl)cc3Cl)n2)cc1 [CBK000814] | 95.9387 |
| Cc1cccc(CN(CCCN(C)C)Cc2ccc(C)o2)n1 [CBK283187] | 95.785 |
| CN(C)CCCNC(=O)c1cccc(S(=O)(=O)N2CCCCC2)c1 [CBK304314C] | 107.482 |
| C[C@H](c1ccccc1)n1c(=O)[nH]c2ncc(-c3ccc(C(N)=O)cc3)nc21 [CBK064377] | 79.5471 |
| CC1(C)O[C@@H]2O[C@@H](C(O)CNC(=O)c3ccccc3)[C@@H](NC(=O)c3ccccc3)[C@@H]2O1 (stereo partly shown) [CBK008727] | 74.1521 |
| COc1nccnc1OC1CCN(CCc2ccc3ccccc3c2)CC1 [CBK084264] | 98.9224 |
| Cc1cc(C)c(-n2nnnc2SCc2ccc(F)cc2)c(C)c1 [CBK100994] | 73.6868 |
| CCOC(=O)[C@H]1CC[C@]2(CC1)CNC(=O)c1ccccc1O2 [CBK284893] | 100.222 |
| CCc1c(C)sc2ncn(C3CCNCC3)c(=O)c12 [CBK282972] | 107.625 |
| COc1ccc(OC)c(NC(=O)Cn2cc(C(C)=O)c3ccccc32)c1 [CBK268661] | 105.246 |
| Cc1noc(C)c1S(=O)(=O)Nc1nnn[nH]1 [CBK062378] | 87.787 |
| CN(C)CCN(C)C(=O)c1cc(Br)cnc1N1CCN(C(=O)c2ccco2)CC1 [CBK076514] | 70.1986 |
| CC(C)CC(=O)Nc1ccc2nc(SCC(=O)O)sc2c1 [CBK299801] | 92.2497 |
| O=c1[nH]cc(CN2CCCN(S(=O)(=O)c3ccc(C(F)(F)F)cc3Cl)CC2)c(=O)[nH]1 [CBK062975] | 64.9518 |
